In the supplement of paper PMC3334620:
The full ranking holds about 33,000 sequences; the median of “E-score (-0.5 to 0.5)” is about -0.016, and the highest 2% start at about 0.32. Some of the results follow.

molecular target: T1, Stp1 (UniProt B3LFK1); assay: PBM E-score (8-mer binding enrichment) (E-score (-0.5 to 0.5)); higher = stronger / more preferred TF binding; most listed sequences are background and not binding sites; settings: protein concentration: 200 nM; construct: GST-full length
T1 sequence: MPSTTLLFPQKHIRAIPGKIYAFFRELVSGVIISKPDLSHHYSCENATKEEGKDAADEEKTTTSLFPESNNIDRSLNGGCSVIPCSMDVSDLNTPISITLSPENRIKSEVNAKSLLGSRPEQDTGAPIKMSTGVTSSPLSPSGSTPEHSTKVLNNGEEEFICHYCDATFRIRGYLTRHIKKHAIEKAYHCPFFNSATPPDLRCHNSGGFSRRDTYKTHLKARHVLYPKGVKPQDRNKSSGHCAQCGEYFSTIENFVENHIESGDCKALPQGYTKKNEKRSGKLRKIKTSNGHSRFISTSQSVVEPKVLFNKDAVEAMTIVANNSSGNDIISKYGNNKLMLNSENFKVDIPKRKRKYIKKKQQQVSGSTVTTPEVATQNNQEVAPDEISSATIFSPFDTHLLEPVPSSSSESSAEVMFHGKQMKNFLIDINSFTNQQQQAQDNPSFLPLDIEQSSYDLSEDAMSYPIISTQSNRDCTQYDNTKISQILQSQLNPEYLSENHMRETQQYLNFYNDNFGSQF
Method in brief: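 Yeast transcription factors carrying a GST tag, as full-length proteins or DNA-binding domains, were produced by PURExpress in vitro transcription/translation. About 100-200 nM protein was applied to universal all-10-mer Agilent arrays, double-stranded by primer extension on fresh or once-stripped slides. Bound protein was detected with fluorescent anti-GST, and scans were normalised with masliner. The Universal PBM Analysis Suite gave each ungapped eight-base word, pooled with its reverse complement, an E-score, a modified Wilcoxon-Mann-Whitney statistic.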

Row | Sequence | PBM E-score
1 | TAGCGATA | 0.0291
2 | CAGGATGG | -0.1
3 | CGGAGAGA | 0.00412
4 | ACACACTA | -0.0331
5 | GAATCCAA | -0.0781
6 | GACGGGAC | -0.203
7 | ACCCAGTG | -0.159
8 | AAGGAAAC | 0.119
9 | AATGCATT | -0.0302
10 | ATCCAACG | -0.237
11 | AGATATGC | -0.04
12 | AAGCGTCC | -0.186
13 | CAGCAGAG | -0.117
14 | CTTTACAC | 0.0646
15 | GCTGGCCC | -0.298
16 | TCGTTGAA | 0.0706
17 | AAATCCTC | -0.218
18 | ATAACTCC | -0.108
19 | CAAAGAGA | -0.0223
20 | ACTTGTGC | -0.0315
21 | AAGGTACA | -0.0874
22 | CGCTAAAG | 0.0823
23 | AAAAGTCA | 0.0186
24 | ATATTCCA | 0.16
25 | CGCAGACA | 0.178

Row | Sequence | PBM E-score
26 | CATAGTGA | -0.301
27 | ATGGTCAA | 0.123
28 | CATCCCAG | -0.172
29 | CTAGGTAC | -0.143
30 | ACCGAGCT | -0.188
31 | GGATGCCC | -0.245
32 | CATATACA | 0.21
33 | GCGCTGAC | -0.0446
34 | ATGACGGC | 0.136
35 | CGAGGAAA | 0.05
36 | CTATTTTC | 0.151
37 | CTGCACCC | -0.284
38 | ACTTAATC | -0.0748
39 | ACGATTGC | 0.129
40 | GTCAGTCA | -0.132
41 | CTGTATAC | 0.0428
42 | GTCACCTA | -0.204
43 | AGGTTTTC | -0.0802
44 | AATTCGGT | 0.217
45 | ACCTTAAA | 0.0365
46 | AGCCTAGG | -0.245
47 | ATACACAT | 0.16
48 | GTACAGCA | 0.00339
49 | ACAGATAC | 0.0916
50 | GGTATCAC | -0.181

Row | Sequence | PBM E-score
51 | GGCATCAC | 0.289
52 | ATCGGTCA | -0.0278
53 | CATTATCG | 0.00751
54 | CTACGTAC | 0.0116
55 | ACGGAACC | 0.129
56 | CTGGTGAA | -0.202
57 | GACGGTTA | -0.201
58 | GAATAATA | 0.15
59 | ACAAGGAT | 0.0271
60 | AAAGCACT | -0.0405
61 | AATACGCC | 0.24
62 | CTCTGCAC | -0.0925
63 | CCGCTATC | 0.0315
64 | CGTCCCCA | -0.199
65 | GGATTTGA | 0.014
66 | ACGGGGGA | -0.267
67 | ACGACCCG | -0.109
68 | CCATCGCC | 0.0827
69 | CACGGTGC | 0.212
70 | CCTATACA | -0.0311
71 | AAAGCGAC | -0.135
72 | ATAAAAAG | 0.262
73 | GGGAATAA | 0.135
74 | ACTGGGCC | -0.13
75 | AACGGTGC | 0.183

Row | Sequence | PBM E-score
76 | CGAACCTC | -0.0892
77 | AAGTGGAA | -0.0493
78 | CAGCCTTA | -0.21
79 | CCCAAACC | -0.124
80 | CAATAATA | 0.19
81 | ACCGCACC | 0.0883
82 | AACCATAA | 0.0889
83 | GGAGTGAA | -0.0852
84 | GTGTCGGA | -0.0814
85 | TCATTCAA | 0.0509
86 | AGGTGTTG | -0.0681
87 | TAGAAGCA | 0.112
88 | AGCTGAAG | -0.16
89 | AGCACCGC | -0.123
90 | CTAGCAGA | 0.0464
91 | AATCAAGG | 0.0369
92 | CCCGGCAC | -0.0313
93 | CCCAAGTA | -0.205
94 | GTACGCAA | -0.0317
95 | CTGAGGGA | -0.253
96 | GCAGTTTA | -0.0702
97 | ATTTAAAA | 0.224
98 | ATTGTGAC | -0.0171
99 | GTCAAGAA | 0.0171
100 | CGCACACG | 0.0837

Row | Sequence | PBM E-score
101 | AGAGTCTA | -0.189
102 | GGGACCTA | -0.16
103 | GTCTTCTA | -0.00913
104 | CGCTTTGC | 0.209
105 | CACACGCC | 0.17
106 | AGGCGCAT | 0.241
107 | AGTCACGG | 0.0206
108 | CTAATTCC | -0.0993
109 | CATGGTCA | 0.103
110 | GCGTAGCC | -0.0921
111 | CACCTAAA | 0.0147
112 | AAGCAGTA | -0.176
113 | ATCGAGAA | 0.0847
114 | AGGAGGTG | -0.174
115 | ACAAGCTG | 0.0431
116 | CGAGATCC | -0.109
117 | AGAAAGGG | 0.0223
118 | GGCTAATA | 0.0747
119 | CAAGCGCG | 0.124
120 | CTGGCAGC | -0.105
121 | ACGCGTCC | -0.153
122 | AGCATTTA | 0.0812
123 | CGGATCCC | -0.153
124 | AGACTTGC | -0.2
125 | ACAATGGC | 0.0235

Row | Sequence | PBM E-score
126 | GTACTGAA | 0.212
127 | CTGGCCGA | -0.177
128 | AAGCCCAC | -0.119
129 | CTTCGCCA | 0.0506
130 | ACCGCCAT | 0.0869
131 | GATTCGCA | 0.0922
132 | ACCATGCA | -0.141
133 | CAATCATG | 0.0546
134 | AGTTCTGG | -0.121
135 | GCGAGACA | -0.185
136 | CAATCATC | -0.178
137 | GACCCGAA | -0.251
138 | CCTAAGGC | -0.101
139 | ACGTCCCG | -0.153
140 | CAAAATCG | 0.183
141 | GATTACCC | 0.0751
142 | GATAGGCC | -0.259
143 | CAACTCCC | 0.148
144 | AAGTTCAC | 0.01
145 | CGCTTCGC | -0.0121
146 | CCGACAAA | 0.0507
147 | CCGAGAAG | -0.194
148 | CCTGGCGC | 0.0915
149 | AGTTCACG | -0.0925
150 | CCTGTCTA | -0.0566

Row | Sequence | PBM E-score
151 | CGCAAGTA | 0.0487
152 | AACCGAAC | -0.0587
153 | CCGCTCGA | 0.191
154 | ATAGTGTC | -0.00831
155 | CGGTGAGC | -0.198
156 | CCTCGTGA | 0.126
157 | ATTCACGG | 0.21
158 | GTTAAGAA | 0.0825
159 | AGCTAGTG | -0.194
160 | TGTTATAA | 0.138
161 | GCGGAGAA | -0.0384
162 | AATGGACA | 0.102
163 | CAACCCAC | 0.0457
164 | AACCCAAT | 0.0153
165 | CCCTGTAC | -0.211
166 | ATTTCTTG | 0.161
167 | GTAAGCCA | -0.244
168 | AAGCGGAA | 0.0259
169 | CATCATGC | 0.205
170 | ACAAGGTC | -0.159
171 | ATCCATCC | -0.0688
172 | GACGCAAC | -0.0448
173 | AAGTCCAT | -0.176
174 | CTCTCGGA | -0.103
175 | CCTCGAAC | -0.142

Row | Sequence | PBM E-score
176 | GAGCCACC | -0.266
177 | ATGCAAAA | 0.199
178 | TCTGAAAA | 0.101
179 | CATATAAA | 0.223
180 | CGGATCTC | -0.0599
181 | CATCACCG | -0.0719
182 | GCACTTCA | 0.134
183 | GAGTTACA | 0.0484
184 | ATATTCTC | 0.03
185 | CATATGAC | 0.111
186 | CCCATCCG | -0.163
187 | CCCATATA | -0.0294
188 | GGGACACA | -0.202
189 | AGTGAAAC | -0.00865
190 | CATTATGC | 0.0672
191 | ATCGCATG | 0.00857
192 | ACCCTCAG | -0.274
193 | GCGAGCGA | 0.126
194 | AAGATACT | -0.0628
195 | AATGTGGC | 0.158
196 | ACGACAGC | -0.0232
197 | CGATTAAG | 0.166
198 | CACCCTAG | -0.172
199 | AATAGATT | 0.0699
200 | ATCTGACG | -0.148

Row | Sequence | PBM E-score
201 | CGTATAAG | -0.0244
202 | ATAATGTG | 0.0627
203 | AGCCGTGA | 0.343
204 | ACGCCCTA | 0.127
205 | ACAGTTAA | 0.0767
206 | AGTTGCGG | 0.0205
207 | ATGGAACG | -0.0659
208 | AGTTAATC | 0.0657
209 | AGTCAACG | -0.173
210 | GAAAACAC | 0.105
211 | GCACCAAA | 0.257
212 | ATCCAGAC | 0.0241
213 | AGAGGTGA | -0.228
214 | CTTAGTAC | 0.17
215 | GTGTTCCA | -0.189
216 | CCAAGTTC | -0.268
217 | CGGCCCTA | 0.161
218 | GCACCAGC | -0.164
219 | GTAAACTA | 0.11
